Article PMC9911399, “Two distinct binding modes provide the RNA-binding protein RbFox with extraordinary sequence specificity”
Numbering of substitutions follows the chain as printed; changes in the protein carry UniProt numbers. The list shows a part of the results.

T1: RBFOX1 RRM RbFoxmut (Fox-RRM*) (Homo sapiens, UniProt Q9NWB1 109-208, R118D;E147R;N151S;E152T)
T1 sequence: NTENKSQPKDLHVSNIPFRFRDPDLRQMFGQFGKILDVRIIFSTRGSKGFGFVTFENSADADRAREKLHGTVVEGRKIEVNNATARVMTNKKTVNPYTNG

B1: GUUUUCC (DNA:RNA)
RNA: GGGAGACCGGAAUUCAGAUUGUCCGUUUUCCUUAAAUCCCGUCGUAGCCACCA
DNA 1: CAATCTGAATTCCGGTCTCCC
DNA 2: TGGTGGCTACGACGGGATT
B2: AGAAAGG (DNA:RNA)
RNA: GGGAGACCGGAAUUCAGAUUGUCCAGAAAGGUUAAAUCCCGUCGUAGCCACCA
DNA 1: CAATCTGAATTCCGGTCTCCC
DNA 2: TGGTGGCTACGACGGGATT
B3: CCUCAUC (DNA:RNA)
RNA: B1 RNA with G25C, U26C, U28C, U29A, C30U
DNA 1: CAATCTGAATTCCGGTCTCCC
DNA 2: TGGTGGCTACGACGGGATT
B4: CUGAGCA (DNA:RNA)
RNA: B1 RNA with G25C, U27G, U28A, U29G, C31A
DNA 1: CAATCTGAATTCCGGTCTCCC
DNA 2: TGGTGGCTACGACGGGATT
B5: GGUUGUC (DNA:RNA)
RNA: B1 RNA with U26G, U29G, C30U
DNA 1: CAATCTGAATTCCGGTCTCCC
DNA 2: TGGTGGCTACGACGGGATT
B6: AAUCAAA (DNA:RNA)
RNA: B2 RNA with G26A, A27U, A28C, G30A, G31A
DNA 1: CAATCTGAATTCCGGTCTCCC
DNA 2: TGGTGGCTACGACGGGATT
B7: GGCACCG (DNA:RNA)
RNA: B2 RNA with A25G, A27C, A29C, G30C
DNA 1: CAATCTGAATTCCGGTCTCCC
DNA 2: TGGTGGCTACGACGGGATT
B8: CAGGUUU (DNA:RNA)
RNA: B1 RNA with G25C, U26A, U27G, U28G, C30U, C31U
DNA 1: CAATCTGAATTCCGGTCTCCC
DNA 2: TGGTGGCTACGACGGGATT
B9: GAACGCG (DNA:RNA)
RNA: B2 RNA with A25G, G26A, A28C, A29G, G30C
DNA 1: CAATCTGAATTCCGGTCTCCC
DNA 2: TGGTGGCTACGACGGGATT
B10: UUACAGG (DNA:RNA)
RNA: B2 RNA with A25U, G26U, A28C
DNA 1: CAATCTGAATTCCGGTCTCCC
DNA 2: TGGTGGCTACGACGGGATT
B11: UCCCUCU (DNA:RNA)
RNA: B1 RNA with G25U, U26C, U27C, U28C, C31U
DNA 1: CAATCTGAATTCCGGTCTCCC
DNA 2: TGGTGGCTACGACGGGATT
B12: ACCGCAU (DNA:RNA)
RNA: B2 RNA with G26C, A27C, A28G, A29C, G30A, G31U
DNA 1: CAATCTGAATTCCGGTCTCCC
DNA 2: TGGTGGCTACGACGGGATT
B13: CGCCCCU (DNA:RNA)
RNA: B2 RNA with A25C, A27C, A28C, A29C, G30C, G31U
DNA 1: CAATCTGAATTCCGGTCTCCC
DNA 2: TGGTGGCTACGACGGGATT
B14: GGGGAGA (DNA:RNA)
RNA: B2 RNA with A25G, A27G, A28G, G31A
DNA 1: CAATCTGAATTCCGGTCTCCC
DNA 2: TGGTGGCTACGACGGGATT
B15: CAAAAAA (DNA:RNA)
RNA: B2 RNA with A25C, G26A, G30A, G31A
DNA 1: CAATCTGAATTCCGGTCTCCC
DNA 2: TGGTGGCTACGACGGGATT
B16: GUAGCUG (DNA:RNA)
RNA: B2 RNA with A25G, G26U, A28G, A29C, G30U
DNA 1: CAATCTGAATTCCGGTCTCCC
DNA 2: TGGTGGCTACGACGGGATT
B17: UUGUCUC (DNA:RNA)
RNA: B1 RNA with G25U, U27G, U29C, C30U
DNA 1: CAATCTGAATTCCGGTCTCCC
DNA 2: TGGTGGCTACGACGGGATT
B18: GUAUGCU (DNA:RNA)
RNA: B1 RNA with U27A, U29G, C31U
DNA 1: CAATCTGAATTCCGGTCTCCC
DNA 2: TGGTGGCTACGACGGGATT
B19: GUAGGUA (DNA:RNA)
RNA: B1 RNA with U27A, U28G, U29G, C30U, C31A
DNA 1: CAATCTGAATTCCGGTCTCCC
DNA 2: TGGTGGCTACGACGGGATT
B20: AAAUUCU (DNA:RNA)
RNA: B1 RNA with G25A, U26A, U27A, C31U
DNA 1: CAATCTGAATTCCGGTCTCCC
DNA 2: TGGTGGCTACGACGGGATT
B21: UGAUUCG (DNA:RNA)
RNA: B2 RNA with A25U, A28U, A29U, G30C
DNA 1: CAATCTGAATTCCGGTCTCCC
DNA 2: TGGTGGCTACGACGGGATT
B22: UACCCUA (DNA:RNA)
RNA: GGGAGACCGGAAUUCAGAUUGUCCUACCCUAUUAAAUCCCGUCGUAGCCACCA
DNA 1: CAATCTGAATTCCGGTCTCCC
DNA 2: TGGTGGCTACGACGGGATT
B23: AACGCUC (DNA:RNA)
RNA: B22 RNA with U25A, C28G, A31C
DNA 1: CAATCTGAATTCCGGTCTCCC
DNA 2: TGGTGGCTACGACGGGATT
B24: CUAGAUC (DNA:RNA)
RNA: B2 RNA with A25C, G26U, A28G, G30U, G31C
DNA 1: CAATCTGAATTCCGGTCTCCC
DNA 2: TGGTGGCTACGACGGGATT
B25: GUAGGCA (DNA:RNA)
RNA: B1 RNA with U27A, U28G, U29G, C31A
DNA 1: CAATCTGAATTCCGGTCTCCC
DNA 2: TGGTGGCTACGACGGGATT
B26: AUUCAAG (DNA:RNA)
RNA: B2 RNA with G26U, A27U, A28C, G30A
DNA 1: CAATCTGAATTCCGGTCTCCC
DNA 2: TGGTGGCTACGACGGGATT
B27: CAUGCAA (DNA:RNA)
RNA: B22 RNA with U25C, C27U, C28G, U30A
DNA 1: CAATCTGAATTCCGGTCTCCC
DNA 2: TGGTGGCTACGACGGGATT
B28: UAAUUCG (DNA:RNA)
RNA: B1 RNA with G25U, U26A, U27A, C31G
DNA 1: CAATCTGAATTCCGGTCTCCC
DNA 2: TGGTGGCTACGACGGGATT
B29: GUGAACG (DNA:RNA)
RNA: B2 RNA with A25G, G26U, A27G, G30C
DNA 1: CAATCTGAATTCCGGTCTCCC
DNA 2: TGGTGGCTACGACGGGATT
B30: UCGGAAG (DNA:RNA)
RNA: B2 RNA with A25U, G26C, A27G, A28G, G30A
DNA 1: CAATCTGAATTCCGGTCTCCC
DNA 2: TGGTGGCTACGACGGGATT
B31: CUAGGUA (DNA:RNA)
RNA: B22 RNA with U25C, A26U, C27A, C28G, C29G
DNA 1: CAATCTGAATTCCGGTCTCCC
DNA 2: TGGTGGCTACGACGGGATT

These binders were tested against T1, RBFOX1 RRM RbFoxmut (Fox-RRM*) (assay: EMSA; HiTS-Eq, 1 nM pool, 10 min; buffer printed only for the single-RNA assays: 10 mM Tris pH 7.5, 150 mM NaCl, 3.4 mM EDTA, 0.001% NP-40, 30 C). Conditions: tags: His6 N-terminal (pET28a); label: 5' 32P.
Summary of the method: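 Purified RbFox RRM (wild type or mutant) was equilibrated for 10 min in 50 µL with 1 nM of a 5′-radiolabelled pool of RNA with 7 randomized nucleotides, its flanks annealed to DNA oligonucleotides, across increasing protein concentrations. Free RNA was separated by 8% native PAGE, excised, reverse-transcribed, PCR-barcoded and sequenced on an Illumina HiSeq 2500. Relative association constants came from read-count changes of each variant against the control reaction, normalised to the cognate motif.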
With B1 the binding signal was 0.0513 KA relative to UGCAUGU. B2 was tested, and the binding signal was 0.072 KA relative to UGCAUGU. With B3 the binding signal was 0.0765 KA relative to UGCAUGU. In the case of B4, the binding signal is reported as 0.125 KA relative to UGCAUGU. For B5, the binding signal was 0.232 KA relative to UGCAUGU. For B6, the binding signal was 0.0706 KA relative to UGCAUGU. In the case of B7, the binding signal is reported as 0.132 KA relative to UGCAUGU. In the case of B8, the binding signal is reported as 0.0791 KA relative to UGCAUGU. For B9, the binding signal was 0.178 KA relative to UGCAUGU. For B10, the binding signal was 0.0908 KA relative to UGCAUGU. With B11 the binding signal was 0.0905 KA relative to UGCAUGU. With B12 the binding signal was 0.0984 KA relative to UGCAUGU. For B13, the binding signal was 0.0713 KA relative to UGCAUGU. For B14, the binding signal was 0.117 KA relative to UGCAUGU. In the case of B15, the binding signal is reported as 0.072 KA relative to UGCAUGU. For B16, the binding signal was 0.115 KA relative to UGCAUGU. In the case of B17, the binding signal is reported as 0.11 KA relative to UGCAUGU. B18 was tested, and the binding signal was 0.402 KA relative to UGCAUGU. In the case of B19, the binding signal is reported as 0.141 KA relative to UGCAUGU. B20 was tested, and the binding signal was 0.0697 KA relative to UGCAUGU. With B21 the binding signal was 0.126 KA relative to UGCAUGU. With B22 the binding signal was 0.122 KA relative to UGCAUGU. With B23 the binding signal was 0.0363 KA relative to UGCAUGU. With B24 the binding signal was 0.0536 KA relative to UGCAUGU. In the case of B25, the binding signal is reported as 0.122 KA relative to UGCAUGU. In the case of B26, the binding signal is reported as 0.118 KA relative to UGCAUGU. In the case of B27, the binding signal is reported as 0.0815 KA relative to UGCAUGU. In the case of B28, the binding signal is reported as 0.0642 KA relative to UGCAUGU. B29 was tested, and the binding signal was 0.538 KA relative to UGCAUGU. In the case of B30, the binding signal is reported as 0.095 KA relative to UGCAUGU. In the case of B31, the binding signal is reported as 0.132 KA relative to UGCAUGU.
